Data: article PMC12136788
The other results are listed elsewhere or left out.

B1: ENSG00000119401:stop:overlap|stop_codon|ENSG00000119401|stop_codon|NA|stop_codon (ssRNA)
RNA: GGGAGUUCUACAGUCCGACGAUCACUGUUGGGAUCAUUGCAUCAAGAUCUACAGCUACCAUCUGAGAAGAUAUUCCACCCCAUAGGGGAUGAGAAAUUAUCAGUUUCUUCUGCUCCCAAGCCAACUUCCCUUCCCUUAGUUCUCAACAGAGGAUUGAGCAUCA
B2: chr12:105021166:105021267:-|3pUTR|ENSG00000136010|unk|FALSE|unique (ssRNA)
RNA: GGGAGUUCUACAGUCCGACGAUCAGUCAGACAGUGUCACUUCACUCGUCUGUUUAAAACCUUUCAAUGGCCCCCAUUUCACGUAGACCAAAGUCCAACGUAUUUACCUGGCCUACUGAUCUUGCUCCUAGCUACCUCUGACCUCAACAGAGGAUUGAGCAUCA
B3: chr15:63775065:63775180:-|CDS|ENSG00000103657|unk|total|mutant (ssRNA)
RNA: GGGAGUUCUACAGUCCGACGAUCUGGUUCAGCAGAUGUCCAUUCUGUCCGUGAACGCCCCCGGUCAAGCACUGAUGCACUUACCGAAAUGGGUGUUCGAACUGGUCUAAGUUUAUUAUUUGCGCUUCUAAGACAAAGUUGGAUCAACAGAGGAUUGAGCAUCA
B4: chrX:103676501:103676735:-|CDS|ENSG00000123562|unk|total|mutant (ssRNA)
RNA: GGGAGUUCUACAGUCCGACGAUCGGAGGUUAAAGUGAAGAUUCCUGAAGAAUUAAAACCAUGGCUUGUUGAGGACUGGGACUCCGUUACCAGGCAGAAGCAGCUGUUUCAACUCCCUGCCAAGAAAAAUGCCGAUGCAAUUCUCAACAGAGGAUUGAGCAUCA
B5: chr2:171482635:171482736:+|3pUTR|ENSG00000115827|unk|FALSE|unique (ssRNA)
RNA: GGGAGUUCUACAGUCCGACGAUCCAAGAGUGUUUCAGAAUAGGAUGUCUUAAGACUUCAGUCAUGUCAGAGAUUUUUUUUUUUAGGUGAUUAUUGAGUUUCUCCUUCUCCUUUAAGUCAUCACCUUCCUUUUAUGAAAUGAUACAACAGAGGAUUGAGCAUCA
B6: chr1:173887777:173887878:+|3pUTR|ENSG00000185278|unk|total|mutant (ssRNA)
RNA: GGGAGUUCUACAGUCCGACGAUCAAAGAGAUUUGGCAGAGGGACAGGUUGUACCUGCACUGGUGAACCAUCUGUGAGAAUGUCCGUCAUGUGCUCCUUUCCUGAGAUUGCUUUGUGGUAUGUGAAAAGGUGGGCCGAAAAGAACAACAGAGGAUUGAGCAUCA
B7: chrX:80717640:80717741:-|CDS|ENSG00000165288|msi1|FALSE|unique (ssRNA)
RNA: GGGAGUUCUACAGUCCGACGAUCCUGAGAAGUCCAAACAUGGACAUAUCUUCUUCCCCAAACAUCAGGCUUCGAAGACAUAGUAGUCAAAUUGAAGGUGUUAGACAAAUGCAUAACAAUGCUCCUCGGAGCCAGAUGGCCACUCAACAGAGGAUUGAGCAUCA
B8: chr13:52461607:52461862:+|CDS|ENSG00000136108|unk|FALSE|bound_elsewhere (ssRNA)
RNA: GGGAGUUCUACAGUCCGACGAUCGUUACAAUCCGGAAAGGGCCUCAUGAAAAAGAACUAUUACAAUCAAAAACAGCUUUAUCUAGUGUCAAAACCAGUUCUUCUCAAGGUAUAAUAAGAAAUAAGACUCUAUCAAGAUCCAUACAACAGAGGAUUGAGCAUCA
B9: chr12:57820040:57820141:-|3pUTR|ENSG00000175215|msi1|FALSE|unique (ssRNA)
RNA: GGGAGUUCUACAGUCCGACGAUCUUUUGCUUAUCAUGUUCCAUUUCGUGCCGCUUUCCCCCUUCAAGAUGCCAUUUGGAGGGUAGGGGAUCUGCUUCCCACUGUGACUGGGCUAUGGGAUUCUGACUACCUUGCUUACAGAUUCAACAGAGGAUUGAGCAUCA
B10: chr15:41696124:41696239:+|CDS|ENSG00000174197|unk|FALSE|unique (ssRNA)
RNA: GGGAGUUCUACAGUCCGACGAUCUGUAGCCUCACCGUUAGACCAGAACGGAAGCUUCAAUGUUGUUAUUAAAGAGGAACCUCUAGAUGAUUAUGACUACGAACUUGGUGAGUGCCCAGAAGGGGUCACUGUGAAACAGGAAGACAACAGAGGAUUGAGCAUCA
B11: chr1:193096648:193096749:-|CDS|ENSG00000023572|msi1_unk|FALSE|overlapping (ssRNA)
RNA: GGGAGUUCUACAGUCCGACGAUCCAACAGGUUCCAAGAAUAUUUGUCAAUGGUACUUUUAUUGGAGGUGCAACUGACACUCAUAGGCUUCACAAAGAAGGAAAAUUGCUCCCACUAGUUCAUCAGUGUUAUUUAAAAAAAAGUCAACAGAGGAUUGAGCAUCA
B12: chr6:105098072:105098315:-|3pUTR|ENSG00000112276|msi1|total|mutant (ssRNA)
RNA: GGGAGUUCUACAGUCCGACGAUCGUACUUUAAAUUCAUUUAUACAAAUGAAUAAGUGUAUCUUUGUAUAAUGCAUAAAUACACCGAUAAAAACAUGUUUGCUGCCAAAGUUCCCAAUAAGAUGCUUCCUGUGUUUUUUGGCCUCAACAGAGGAUUGAGCAUCA
B13: chr15:59095394:59095499:+|3pUTR|ENSG00000157450|unk|FALSE|unique (ssRNA)
RNA: GGGAGUUCUACAGUCCGACGAUCUAAAUACCAUCCUUAAUACUGGGAACAGAAUACAACCCAUAUAAAUCAGAUGCAGGUGGUAGUCACAUCACCAGAGUGAUCAGUAUAAAUUUUCUUGGUGUAUCCUUUUCCUUUCAACACCAACAGAGGAUUGAGCAUCA
B14: chr14:92163265:92163366:+|3pUTR|ENSG00000165934|msi1|total|mutant (ssRNA)
RNA: GGGAGUUCUACAGUCCGACGAUCUAAUAUCAGACUCGAAUUACUAUUUCAUUCUAUUUCAAAUGCUUAUAAAGCUACUAUUGCCGAUUACCGUGUUAAUGCAAAGUUUACAGACUUUUGAUAUGGAAAACCAGAUAAAACAAUCAACAGAGGAUUGAGCAUCA
B15: ENSG00000186575:stop:overlap|stop_codon|ENSG00000186575|stop_codon|NA|stop_codon (ssRNA)
RNA: GGGAGUUCUACAGUCCGACGAUCCCAUUAAAAAGCUCACCUUGCAGAGCGCCAAGUCCCGAGUGGCCUUCUUUGAAGAGCUCUAGCAGGUGACCCAGCCACCCCAGGACCUGCCACUUCUCCUGCUACCGGGACCGCGGGAUGCAACAGAGGAUUGAGCAUCA
B16: ENSG00000136451:be:win_1901|3pUTR|ENSG00000136451|bound_else_gene|NA|bound_elsewhere_windowed (ssRNA)
RNA: GGGAGUUCUACAGUCCGACGAUCUCCCAAGGAAUCACUUUAUUGUAAACACUAGCAGAACUCUUCUCCCUAUACAAGGUGGAUGGCUGAUUUUAACCUGAAAUUUUAAAUCCACAGAUUGAGAGCUAGUGUAGAAUUGUCUGUCAACAGAGGAUUGAGCAUCA
B17: chr1:192811693:192811799:+|3pUTR|ENSG00000116741|unk|FALSE|unique (ssRNA)
RNA: GGGAGUUCUACAGUCCGACGAUCCUUGAAUUCAGCCUGGGUGUUCAGGAAACAUCACUCAGAACUAUUGAUUCAAAGUUGGGUAGUGAAUCAGGAAGCCAGUAACUGACUAGGAGAAGCUGGUAUCAGAACAGCUUCCCUCACCAACAGAGGAUUGAGCAUCA
B18: chr6:44253573:44253761:+|CDS_3pUTR|ENSG00000096384|msi1_unk|FALSE|overlapping (ssRNA)
RNA: GGGAGUUCUACAGUCCGACGAUCUCGCAUGGAAGAAGUCGAUUAGGUUAGGAGUUCAUAGUUGGAAAACUUGUGCCCUUGUAUAGUGUCCCCAUGGGCUCCCACUGCAGCCUCGAGUGCCCCUGUCCCACCUGGCUCCCCCUGCAACAGAGGAUUGAGCAUCA
B19: chr5:171862525:171862626:-|3pUTR|ENSG00000072803|msi1|total|mutant (ssRNA)
RNA: GGGAGUUCUACAGUCCGACGAUCGACAGUGCAUGGAAAGGACGUUGGCAUCCAAUUGGCACUCCUUCUCCCUUAUUCAAUAUCCGGUUUGAUUUGCCCUUCGCCAUUGUUUCCAAAGAUCAAGGAAUGUCAAUAACAUUUUAACAACAGAGGAUUGAGCAUCA
B20: chr1:150144965:150145066:+|3pUTR|ENSG00000136631|msi1|FALSE|unique (ssRNA)
RNA: GGGAGUUCUACAGUCCGACGAUCAGACUCCCAGAGUUGUCCUAACAAUAAGUCUGAGCCCAUCUCAACCCACUUUUCUCCGGUAGUCUUUAUGUAUCUGUUAGCACAAUCACUUCAGUUACUGAUGAAUUUUGUUGGGAUCUGCAACAGAGGAUUGAGCAUCA
B21: chr8:20179120:20179484:-|CDS|ENSG00000036565|control|control|control (ssRNA)
RNA: GGGAGUUCUACAGUCCGACGAUCCAUCUUCUCCUUCUUCAACAACAACACCGUGGCUGUUGAAGAAAGCGUACCUAGUGGAAUAGCAUGGAUGAAUGACACUGCCAGCACCAUCCCACCUCCAGCCACUGAAGCCAUCUCAGCCAACAGAGGAUUGAGCAUCA
B22: ENSG00000070961:be:win_5301|3pUTR|ENSG00000070961|bound_else_gene|NA|bound_elsewhere_windowed (ssRNA)
RNA: GGGAGUUCUACAGUCCGACGAUCUUGCCUCUGUCUUUACCCUUUAGAAACUGGCAUGUGUUAGGGCCCAGAUUUCACCAGAUACACAAUCCUCAGGCUGACAUAAAGUUUACGAGGACUGCUACUAUAACUGAGAGUGCUGACCAACAGAGGAUUGAGCAUCA

molecular target: MSI1 full-length (mouse, UniProt Q61474 1-362); assay: nsRBNS (natural sequence RNA bind-n-seq); RBNS binding buffer (assumed for nsRBNS): 25 mM Tris pH 7.5, 150 mM KCl, 3 mM MgCl2, 0.01% Triton X-100, 500 ug/ml BSA, 20 U/ml SUPERase-In, 4 C; UNK is unkempt and MSI1 is Musashi-1; names of the RNAs are library labels; protein concentration not given here; high values mean tight binding
Sequence of UniProt Q61474 (Q61474 whole entry): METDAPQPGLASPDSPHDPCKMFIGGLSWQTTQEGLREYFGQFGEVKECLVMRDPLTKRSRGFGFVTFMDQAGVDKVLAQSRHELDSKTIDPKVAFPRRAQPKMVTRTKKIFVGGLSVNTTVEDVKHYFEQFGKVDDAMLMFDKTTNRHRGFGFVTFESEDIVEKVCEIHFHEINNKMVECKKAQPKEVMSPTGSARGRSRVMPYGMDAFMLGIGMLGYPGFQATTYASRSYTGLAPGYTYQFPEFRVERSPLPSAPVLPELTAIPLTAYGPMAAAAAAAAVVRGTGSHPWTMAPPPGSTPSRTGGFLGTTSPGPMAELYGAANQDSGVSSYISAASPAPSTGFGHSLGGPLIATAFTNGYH

Going from B1 to B2, the binding signal rises from 0.384 enrichment R to 0.427 enrichment R.

Going from B3 to B4, the binding signal rises from 0.316 enrichment R to 0.539 enrichment R.

Compared with B5, B6 is lower in binding signal: 0.919 enrichment R for the first, 0.515 enrichment R for the second.

Compared with B7, B8 is higher in binding signal: 1.8 enrichment R for the first, 10.8 enrichment R for the second.

Going from B9 to B10, the binding signal rises from 0.539 enrichment R to 0.654 enrichment R.

Going from B11 to B12, the binding signal falls from 7.98 enrichment R to 0.276 enrichment R.

Going from B13 to B14, the binding signal falls from 0.744 enrichment R to 0.4 enrichment R.

First: B15
Second: B16
The binding signal of the first is lower: 0.435 enrichment R for the first, 0.611 enrichment R for the second.

Going from B17 to B18, the binding signal rises from 0.283 enrichment R to 1.6 enrichment R.

Compared with B19, B20 is lower in binding signal: 0.579 enrichment R for the first, 0.547 enrichment R for the second.

First: B21
Second: B22
The binding signal of the first is lower: 0.332 enrichment R for the first, 0.545 enrichment R for the second.
